These results are taken from the supplement of paper PMC12217912.

Sequences and labels used below:
B1: TEV protease; numbered along this chain (parent)
chain: MGESLFKGPRDYNPISSSICHLTNESDGHTTSLYGIGFGPFIITNKHLFRRNNGTLVVQSLHGVFKVKDTTTLQQHLVDGRDMIIIRMPKDFPPFPQKLKFREPQREERICLVTTNFQTKSMSSMVSDTSCTFPSGDGIFWKHWIQTKDGQCGSPLVSTRDGFIVGIHSASNFTNTNNYFTSVPKNFMELLTNQEAQQWVSGWRLNADSVLWGGHKVFMVKPEEPFQPVKEATQL

In the test the parent is B1. Briefly: raw area under fraction-flipped curve 0-4 h after induction (AUC4h, not background-subtracted), DNA-recorder readout of cleavage of the substrate (dimensionless); higher = more cleavage of the substrate by the protease variant. Particulars: temperature: 34 °C; time window: 0-4 h after rhamnose induction. The procedure: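 In vivo DNA recorder in E. coli TOP10(DE3) ΔrhaA at 34 °C. Each TEVp single-site mutant (parent TEVp 0) is paired with a single-site variant of the 7-mer TEVs (canonical ENLYFQ|S). The substrate sits between flexible linkers in a Bxb1-sfGFP-TEVs-SsrA fusion, so cleavage stabilises Bxb1 and speeds flipping of a recombination array, read by NGS. The value is the raw area under the fraction-flipped curve over 0-4 h after rhamnose induction (AUC4h), with ≥20 reads per time point. It is not background-subtracted; inactive controls average about 0.047.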

The list shows a part of the results. Sequences were assembled here from the parent chain. Inactive controls read about 0.05.
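Note: Bxb1 expression induced with 0.2% (w/v) L-rhamnose at OD600 near 0.5, cultures sampled hourly, flipped fraction per protease–substrate barcode pair counted by paired-end Illumina sequencing.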

With MGESLFKGPRDYNPISSSICHLTNESDGHTTSLYGIGFGPFIITNKHLFRRNNGTLVVQSLHGVFKSKDTTTLQQHLVDGRDMIIIRMPKDFPPFPQKLKFREPQREERICLVTTNFQTKSMSSMVSDTSCTFPSGDGIFWKHWIQTKDGQCGSPLVSTRDGFIVGIHSASNFTNTNNYFTSVPKNFMELLTNQEAQQWVSGWRLNADSVLWGGHKVFMVKPEEPFQPVKEATQL [V67S], the “area with substrate EALYFQS” value worked out at 0.0906, the “area with substrate ECLYFQS” value was determined as 0.105, the “area with substrate EDLYFQS” value was 0.115 and the “area with substrate EGLYFQS” value was found to be 0.0938. In addition, the “area with substrate EILYFQS” value was 0.075, the “area with substrate EKLYFQS” value worked out at 0.0899, the “area with substrate ELLYFQS” value was found to be 0.0788 and the “area with substrate EMLYFQS” value stood at 0.0836. Also, the “area with substrate EPLYFQS” value worked out at 0.0877, the “area with substrate EQLYFQS” value turned out to be 0.0816, the “area with substrate ERLYFQS” value is 0.0817 and the “area with substrate ESLYFQS” value amounted to 0.103. Also, the “area with substrate EVLYFQS” value was found to be 0.0884, the “area with substrate EWLYFQS” value was found to be 0.0792 and the “area with substrate EYLYFQS” value amounted to 0.0824.

On to MGESLFKGPRDYNPISSSICHLTNESDGHTTSLYGIGFGPFIITNKHLFRRNNGTLVVQSLHGVFKAKDTTTLQQHLVDGRDMIIIRMPKDFPPFPQKLKFREPQREERICLVTTNFQTKSMSSMVSDTSCTFPSGDGIFWKHWIQTKDGQCGSPLVSTRDGFIVGIHSASNFTNTNNYFTSVPKNFMELLTNQEAQQWVSGWRLNADSVLWGGHKVFMVKPEEPFQPVKEATQL [V67A], for which the “area with substrate EALYFQS” value was found to be 0.114, the “area with substrate ECLYFQS” value was 0.0832, the “area with substrate EDLYFQS” value is 0.0853 and the “area with substrate EHLYFQS” value was 0.0975. Also, the “area with substrate EILYFQS” value came to 0.0866, the “area with substrate EKLYFQS” value came out at 0.0774, the “area with substrate EMLYFQS” value was 0.102 and the “area with substrate EPLYFQS” value came to 0.108. In addition, the “area with substrate EQLYFQS” value worked out at 0.0726, the “area with substrate ESLYFQS” value came to 0.101, the “area with substrate EVLYFQS” value was 0.0907 and the “area with substrate EWLYFQS” value turned out to be 0.0877. Besides, the “area with substrate EYLYFQS” value is 0.0903.

Turning to MGESLFKGPRDYNPISSSICHLTNESDGHTTSLYGIGFGPFIITNKHLFRRNNGTLVVQSLHGVFKVKSTTTLQQHLVDGRDMIIIRMPKDFPPFPQKLKFREPQREERICLVTTNFQTKSMSSMVSDTSCTFPSGDGIFWKHWIQTKDGQCGSPLVSTRDGFIVGIHSASNFTNTNNYFTSVPKNFMELLTNQEAQQWVSGWRLNADSVLWGGHKVFMVKPEEPFQPVKEATQL [D69S], the “area with substrate EALYFQS” value turned out to be 0.094, the “area with substrate ECLYFQS” value stood at 0.0931, the “area with substrate EELYFQS” value was found to be 0.103 and the “area with substrate EFLYFQS” value came out at 0.111. The “area with substrate EHLYFQS” value turned out to be 0.0826, the “area with substrate EILYFQS” value was 0.0816, the “area with substrate ELLYFQS” value was 0.0831 and the “area with substrate EMLYFQS” value amounted to 0.0962. The “area with substrate EQLYFQS” value was 0.095, the “area with substrate ERLYFQS” value is 0.0875, the “area with substrate ESLYFQS” value was 0.0804 and the “area with substrate ETLYFQS” value came out at 0.0982. The “area with substrate EVLYFQS” value was found to be 0.0845, the “area with substrate EWLYFQS” value came to 0.0748 and the “area with substrate EYLYFQS” value was 0.0829.

MGESLFKGPRDYNPISSSICHLTNESDGHTTSLYGIGFGPFIITNKHLFRRNNGTLVVQSLIGVFKVKDTTTLQQHLVDGRDMIIIRMPKDFPPFPQKLKFREPQREERICLVTTNFQTKSMSSMVSDTSCTFPSGDGIFWKHWIQTKDGQCGSPLVSTRDGFIVGIHSASNFTNTNNYFTSVPKNFMELLTNQEAQQWVSGWRLNADSVLWGGHKVFMVKPEEPFQPVKEATQL [H62I]: the “area with substrate EALYFQS” value turned out to be 0.0917, the “area with substrate EHLYFQS” value stood at 0.115, the “area with substrate EILYFQS” value was 0.0663 and the “area with substrate ELLYFQS” value worked out at 0.0767. The “area with substrate ESLYFQS” value came to 0.0654, the “area with substrate EVLYFQS” value was determined as 0.104, the “area with substrate EWLYFQS” value worked out at 0.0816 and the “area with substrate EYLYFQS” value came out at 0.0917.

In the case of MGESLFKGPRDYNPISSSICHLTNESDGHTTSLYGIGFGPFIITNKHLFRRNNGTLVVQSLYGVFKVKDTTTLQQHLVDGRDMIIIRMPKDFPPFPQKLKFREPQREERICLVTTNFQTKSMSSMVSDTSCTFPSGDGIFWKHWIQTKDGQCGSPLVSTRDGFIVGIHSASNFTNTNNYFTSVPKNFMELLTNQEAQQWVSGWRLNADSVLWGGHKVFMVKPEEPFQPVKEATQL [H62Y], the “area with substrate EALYFQS” value is 0.128, the “area with substrate ECLYFQS” value was 0.0911, the “area with substrate EELYFQS” value was found to be 0.11 and the “area with substrate EFLYFQS” value was found to be 0.132. Besides, the “area with substrate EGLYFQS” value worked out at 0.095, the “area with substrate EHLYFQS” value was 0.116, the “area with substrate EILYFQS” value is 0.0895 and the “area with substrate EKLYFQS” value is 0.144. Moreover, the “area with substrate ELLYFQS” value came to 0.109, the “area with substrate EMLYFQS” value is 0.15, the “area with substrate EPLYFQS” value was determined as 0.118 and the “area with substrate ERLYFQS” value worked out at 0.106. The “area with substrate ESLYFQS” value is 0.116, the “area with substrate ETLYFQS” value was 0.12 and the “area with substrate EVLYFQS” value amounted to 0.093.

For MGESLFKGPRDYNPISSSICHLTNESDGHTTSLYGIGFGPFIITNKHLFRRNNGTLVVQCLHGVFKVKDTTTLQQHLVDGRDMIIIRMPKDFPPFPQKLKFREPQREERICLVTTNFQTKSMSSMVSDTSCTFPSGDGIFWKHWIQTKDGQCGSPLVSTRDGFIVGIHSASNFTNTNNYFTSVPKNFMELLTNQEAQQWVSGWRLNADSVLWGGHKVFMVKPEEPFQPVKEATQL [S60C], the “area with substrate EALYFQS” value was determined as 0.125, the “area with substrate ECLYFQS” value was found to be 0.0846, the “area with substrate EDLYFQS” value was found to be 0.133 and the “area with substrate EGLYFQS” value is 0.0841. For the same variant, the “area with substrate EILYFQS” value worked out at 0.0821, the “area with substrate EMLYFQS” value stood at 0.115, the “area with substrate EPLYFQS” value worked out at 0.13 and the “area with substrate EQLYFQS” value is 0.125. Further, the “area with substrate ERLYFQS” value was 0.11, the “area with substrate ESLYFQS” value stood at 0.122, the “area with substrate EWLYFQS” value was 0.0883 and the “area with substrate EYLYFQS” value came to 0.11.

Regarding MGESLFKGPRDYNPISSSICHLTNESDGHTTSLYGIGFGPFIITNKHLFRRNNGTLVVQSLHGVFDVKDTTTLQQHLVDGRDMIIIRMPKDFPPFPQKLKFREPQREERICLVTTNFQTKSMSSMVSDTSCTFPSGDGIFWKHWIQTKDGQCGSPLVSTRDGFIVGIHSASNFTNTNNYFTSVPKNFMELLTNQEAQQWVSGWRLNADSVLWGGHKVFMVKPEEPFQPVKEATQL [K66D], the “area with substrate EALYFQS” value amounted to 0.114, the “area with substrate EDLYFQS” value turned out to be 0.124, the “area with substrate EELYFQS” value amounted to 0.105 and the “area with substrate EGLYFQS” value worked out at 0.0784. For the same variant, the “area with substrate EHLYFQS” value is 0.108, the “area with substrate EMLYFQS” value was 0.115, the “area with substrate EPLYFQS” value is 0.116 and the “area with substrate EQLYFQS” value worked out at 0.0982. The “area with substrate ERLYFQS” value amounted to 0.095, the “area with substrate ESLYFQS” value is 0.104, the “area with substrate ETLYFQS” value was found to be 0.107 and the “area with substrate EVLYFQS” value was 0.0852. The “area with substrate EWLYFQS” value was found to be 0.101 and the “area with substrate EYLYFQS” value amounted to 0.101.

For the variant MGESLFKGPRDYNPISSSICHLTNESDGHTTSLYGIGFGPFIITNKHLFRRNNGTLVVQSLHGVFMVKDTTTLQQHLVDGRDMIIIRMPKDFPPFPQKLKFREPQREERICLVTTNFQTKSMSSMVSDTSCTFPSGDGIFWKHWIQTKDGQCGSPLVSTRDGFIVGIHSASNFTNTNNYFTSVPKNFMELLTNQEAQQWVSGWRLNADSVLWGGHKVFMVKPEEPFQPVKEATQL [K66M], the “area with substrate EALYFQS” value is 0.101, the “area with substrate ECLYFQS” value was 0.0983, the “area with substrate EELYFQS” value is 0.118 and the “area with substrate EGLYFQS” value stood at 0.0944. The “area with substrate EILYFQS” value came to 0.099, the “area with substrate EMLYFQS” value was determined as 0.112, the “area with substrate ERLYFQS” value amounted to 0.0865 and the “area with substrate ESLYFQS” value worked out at 0.0866. For the same variant, the “area with substrate ETLYFQS” value came to 0.123, the “area with substrate EVLYFQS” value was 0.0887 and the “area with substrate EWLYFQS” value was determined as 0.0892.

For the variant MGESLFKGPRDYNPISSSICHLTNESDGHTTSLYGIGFGPFIITNKHLFRRNNGTLVVKSLHGVFKVKDTTTLQQHLVDGRDMIIIRMPKDFPPFPQKLKFREPQREERICLVTTNFQTKSMSSMVSDTSCTFPSGDGIFWKHWIQTKDGQCGSPLVSTRDGFIVGIHSASNFTNTNNYFTSVPKNFMELLTNQEAQQWVSGWRLNADSVLWGGHKVFMVKPEEPFQPVKEATQL [Q59K], the “area with substrate EALYFQS” value is 0.125, the “area with substrate EDLYFQS” value came out at 0.125, the “area with substrate EFLYFQS” value worked out at 0.123 and the “area with substrate EHLYFQS” value is 0.128. Besides, the “area with substrate EILYFQS” value stood at 0.133, the “area with substrate ELLYFQS” value is 0.0893, the “area with substrate ERLYFQS” value is 0.0934 and the “area with substrate ESLYFQS” value was found to be 0.137. Also, the “area with substrate EVLYFQS” value was determined as 0.0828 and the “area with substrate EYLYFQS” value is 0.144.
